To fix the notation:
B1: LC3A_28_1179 (protein)
chain: SELEKSIEEALAKAKEAKEKGEPTVITIKVPGDVTQEETEKVIKAMEEIAELLKDIKGSAIVIEVDSGVSQEHLDKLMKKGEEIEKKYPNVTVIFALDEE
B2: LC3A_28_1044 (protein)
chain: NELKEDAEKAIEEAKEQFEKGEEAVVTINVPKIDTETAKKIVTETLEKLIELSKKYGNKKVTVVINFDGDQETLDAIIDVAEEAEKKDPNLTVIIAYDPE
B3: LC3A_128_230 (protein)
chain: NETLKEIKELLEEALKILKEAKSPELPEELWEKALKAIEEAIKLVKENAPVEEIKKALDEAAKYTEELYLYAKSKGLPEATDIAEALILINQALLLVDEL
B4: LC3A_free_8_2471 (protein)
chain: MSQKVVDTAVKGLDELEEKVEKKAKELGKSELDILELKLEIGSTIADVISLSDESPEKILKTYEEGMKDIIKLAKEISEELAKLVEEMSKEGIKKLEELL
B5: LC3A_3_1751 (protein)
chain: MEERLAEARALLEELGFSEETTEAALEVVRLLLERGFERAVEVLLELLKEMKDLPDEILLAMLEDIRRVVETEDLDEEEVIEEIKREARTAKNEAEIIEL
B6: LC3A_free_8_2487 (protein)
chain: SREETRNKITEIVDETIEKVRELAEKLGADRLDILDLELLLGEVIAAAHELEFESIEEVKKEIEESLEEAEELAREISEEVAEVVREAREKILKLLEEAE
B7: LC3A_3_1622 (protein)
chain: MEEKVEEALKLLKEAGASEETLEAFRETAELLMEKGYYEALETLIEEMEKIKDAPNEIILDALKEVKEVVENEDLDEEELIEKIKEIFRTAKNESEIIEL
B8: LC3A_28_1090 (protein)
chain: SELEESLEAALAETRAAAAAGEEAVVTITVTDEATEEDIELLKETLEEIARIGASLPRLTVIIDLEGKNQQKKADIISKFADELEKKYPNLTIIIALEEE
B9: LC3A_free_46_2354 (protein)
chain: VEAKIEVDLLHEDEEVLKKAVEAIKEAAKKIAKKYGLKVEIKEKIEKLPDGSYFAEIEITLKGEDKETLEKAVNELINEIDEIAKKYDVAAIISYEIIEK
B10: LC3A_3_1538 (protein)
chain: LDAAVAAAEAALRAAGASDETLAAFRAAAEALRARGWEAALKTLIEETAELLDAPSELLLDFFEEVLELVETSDLSEEELIARIKELARTTRNEAEIEEL
B11: LC3A_free_8_2462 (protein)
chain: SSQKLVDEAVKLLDELEEKLVEKAKELGLSHLDILDLELEIGSAIADLIGLENESPETILEEAKEDLEEIIEKAKELGEELYKLAKEESEKILKELEKLK
B12: LC3A_45_1947 (protein)
chain: MAEATVLVLVPEEKFDEALAVLREAAEEISARRGLEVEIDEAAVEAAREEAKREGEALLEVTVYSDDKQDALDAAVEIADRLEERLGPSVAVAIAVKEIP
B13: LC3A_28_1035 (protein)
chain: DALRKEAEAAVKEAEALAAKGEEAVVTLKVGKMPTEEAKAVVEEMLERLIEISKKYGNVKISVVIDVDGDQETIDALTDVAEKAEEKNPNLTVIIAIDED
B14: LC3A_free_46_2425 (protein)
chain: VEVEIDIDLLHKDRATLEAAVAEIVAAIREIAARHGAEVEIEVELSEDEDGDYFAEIRATIIAPDRETAERIADEITDAIDEIATKHGVSYIISVEIIEL
B15: LC3A_free_46_2304 (protein)
chain: YKANINIDFGGLDEEGMKKLVDELVKKFKEIAKKYNAKIEIKVEITTDEEGETFANIDITIKAENEETLQKTVTEIIDTVDELTKETGAAALISVEFEKE
B16: LC3A_28_852 (protein)
chain: SKVEEQIEKARKELEEAAKRGEPVVLELTVSGDFTQEEIDKFIEGLRELAELADKHGGHAIIINVEEGVKQEHIDKIADAAEEIEEKYPNVTVIIALPEN
B17: LC3A_3_1889 (protein)
chain: LEEKVKETLKKLKEAGASEETLAAFEEAAKLLKARGWEEALKTLIEEVEKLLDAPNEVILDFLEDVLALLKRPGVTEEELIKEIKELARLAKNEAEIIEL
B18: LC3A_free_8_2454 (protein)
chain: ASQALADTAIAILDEVEEELKKLLEEAGANRLDILEVELEVGSVIAEVVSLSDSSPEEIAKTAIEGLERVLALVAELKPEIAEEAKKLIDAAKERIKAAL
B19: LC3A_3_1391 (protein)
chain: FEEIKKEAVEELKKFGRSEEVIKATQELLDELEKKGYLEAAKTFLEELKKMKDLSDEILLWMINEVLNYVKTNDSSEEEVVNFIKEVATTARNEHEIEEL
B20: LC3A_free_39_2201 (protein)
chain: SEEEFEKYKEELLKLAEKEGEEALKEAKELLKEIEGNVNLAKTVLEEVKRAVEEGADVLELLKELLKLVKELKKEGKSEEEIIKEMKAKADVIINLIPID
B21: LC3A_free_39_2200 (protein)
chain: MEEELQKVKEEILELAKKEGEEALKAAKELLKEIEGDLELAKEVLEQVKRAIEEGADVLKLLKELLELVKKLKAEGKSTEEIIEEIRAEADVIINLIPID
B22: LC3A_3_1504 (protein)
chain: MEERLERLREKLKELGFSEEVIELAVEAMRLLLERGYYEAAETLEELLLEMKDLSNEDMLEFMEEVLELLETSDDSEEEITKKIKEIATITKNAAEIEEL
B23: LC3A_28_1152 (protein)
chain: SELVEEAKKEIEEDAEKDKNEKEVYLRVTITSEMTVEEAEEVMEHVEEVVEKLKDKEKIYVVVTFEEPVSQEVLDTVLERAERIEKKFPNVDVIIALPED
B24: LC3A_28_1132 (protein)
chain: SAAVEAAKAQIDADAEADKNEEEVFLTVNVSGTVTVEEAREIMAHVEKVVEELKDKKKISVLVNFEEPVSQEVLDTILEGGDELEEKFPNVSVIVALPEG
B25: LC3A_132_274 (protein)
chain: EKEKAEELKKELKEKVEKLKENIDNLEEVKKLIKEIEELLKKAEKELSPELVAEVADYLADKMDEVEEKYLAAGKEEQALLVSNLAMYADGIAIEAELKL
B26: LC3A_3_1506 (protein)
chain: MEEFLEEVREFLREQGRSEEVIALAERVLRLLLERGYEEAARKFAELLREAKDFSEEILLDFLEDVLEMLETEEGDEEEIIEKIEEIYTIHKNAHEIIEL
B27: LC3A_28_858 (protein)
chain: SRTRESIRRAREELEKAVAAGEEVTITIEVTEDITPEEVKEVIAAIKEAAEASKDVPSLTVIVDVIGKVDPEHLKEIADAGEEASKANPNLTVIIALDEE
B28: LC3A_free_39_2289 (protein)
chain: MEEKLKKAVEELKKLLDEEPEITEEEKKIILEAASKSLEVAEALVKALKDIKAAGGDVAAFVKEVAELIKKLEEEGASQEELNKAVIEKAEDLRNLIPID
B29: LC3A_23_606 (protein)
chain: MYKIEVIVDVIVPKEEAEKVIEKILEVIEEIVEENKDKIKKVEVKIEKEELEDGRVYIRIDITITVDTTKEEAEEIRNKLVTRLSEVVPDAVISSEVEEL

Whole data set: some 2,300 sequences, median “median log2 fold change of GCK-ALFA target abundance (FLAG IP / Myc IP barcode read proportion)” near 0.095, cut for the lowest 2% near -0.47. Some of the results follow.

This assay concerns the target MAP1LC3A, Q9H492. Briefly: median log2 fold change of GCK-ALFA target abundance (FLAG IP / Myc IP barcode read proportion) (log2 ratio); each designed protein is fused to an ALFA-tag nanobody in HEK293 cells to bring the named protein to FLAG-tagged glucokinase (GCK); Myc marks an untargeted standard; higher = target protein stabilised (more abundant). To be noted: target protein: 3xFLAG-MCP-GCK-ALFA reporter; HEK293 landing pad (RPLP). The essentials:
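An ALFA-nanobody-fused binder library was recombined into HEK293 landing-pad cells and induced with 2 μg mL^−1 doxycycline. Cells were transfected with a plasmid expressing a FLAG-tagged target and a Myc-tagged standard. After 48 h, lysates underwent anti-FLAG and anti-Myc immunoprecipitation, and circular RNA barcodes were reverse transcribed, amplified and sequenced. Target abundance is the per-binder median log2 ratio of FLAG to Myc barcode read proportions. Barcodes needed ≥10^−7 proportion in both replicates, binders ≥3 barcodes per replicate, and a 10^−6 pseudocount was added; the two replicates were pooled.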
As for B1, the “median log2 fold change” value is 0.0481.
For B2 the value was 0.0219; for B3, 0.194; for B4, -0.199.
On to B5, for which the “median log2 fold change” value is 0.234.
For B6 the value was -0.222; for B7, 0.227; for B8, 0.101.
Consider B9, for which the “median log2 fold change” value was -1.38e-07.
To B10 belongs 0.17.
To B11 belongs -0.173; to B12, 0.0364; to B13, 0.0465.
To B14 belongs -0.121; to B15, 0.0523; to B16, 0.193.
B17: the “median log2 fold change” value amounted to 0.333.
For B18 the value was -0.109.
To B19 belongs 0.177.
As for B20, the “median log2 fold change” value turned out to be 0.451.
For B21 the value was 0.196.
Regarding B22, the “median log2 fold change” value amounted to 0.13.
To B23 belongs -0.198.
For B24, the “median log2 fold change” value was -0.13.
For B25 the value was -0.0602; for B26, 0.0983.
Regarding B27, the “median log2 fold change” value came out at 0.258.
For B28 the value was 0.377; for B29, 0.19.

The record behind these values is the supplement of paper PMC12632987.
